PubChem BioAssay AID686979 (National Center for Advancing Translational Sciences (NCATS), 2013)
Values joined by “and” are separate entries in the source; they are usually repeats but may differ in a detail not shown here. Equal entries are not always repeated. About 50,000 (12%) of roughly 420,000 compounds were called active. This list was built around the results that the source calls inconclusive (neither active nor inactive); the mix of calls is not that of the screen. The call rests on the fitted dose curve; in most records, active means well fitted inhibition curve with a large enough effect; inconclusive means small, poorly fitted or top-dose-only effect; inactive means flat fitted curve, though single readings scatter. A potency beside an inconclusive call is a rough fit, not a confirmed value.
On the % scale 0 is the no-effect control and ±100 the full control effect; potency means the concentration at half of the fitted maximal effect; tags describe the fitted curve by direction and shape.

Assay: qHTS for Inhibitors of human tyrosyl-DNA phosphodiesterase 1 (TDP1): qHTS in cells in presence of CPT; further: nearly all actives have a fitted effect of over 55% in size
Settings: chicken DT40 Tdp1-/-;hTDP1 cells + 20 nM CPT, ATP luminescence, 48 h; activity change, negative = growth inhibition: at 46.2 µM (top of the series) unless noted
In short: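 Chicken DT40 Tdp1-/- cells stably complemented with human TDP1 were seeded at 400 cells/well in medium containing 20 nM camptothecin, exposed to pin-transferred compounds, and grown at 37 °C for at least 48 hr. Viability was read as ATP luminescence.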
With O=S(=O)(c1ccc(NC2CCCCC2)cc1)N1CCOCC1 the Potency was inconclusive: 23.1 µM [inhibitor, single point].
In the case of CCOC(=O)c1c(-c2cccs2)csc1NC(=O)COC(=O)c1c(C)noc1C, the Potency is reported as inconclusive: 29.1 µM [inhibitor, single point].
With N=c1c2c(-c3ccccc3)c(-c3ccccc3)n(Cc3ccccc3)c2ncn1CCO the “activity change, negative = growth inhibition” value was inactive: -118%.
In the case of Cc1ccc(S(=O)(=O)N[C@H](C(=O)NC2CCC(C)CC2)C(C)C)cc1 (some centres undefined), the Potency is reported as inconclusive: 29.1 µM [inhibitor, single point].
With Cc1ccc(-c2noc(-c3cccs3)n2)cc1 the “activity change, negative = growth inhibition” value was inactive: 5.79%.
With Cc1ccc(C)c(N2CCN(C(=O)c3ccc(Cn4c(=S)[nH]c5ccc(N6CCOCC6)cc5c4=O)cc3)CC2)c1 the Potency was inconclusive: 4.11 µM [inhibitor, single point].
For Cc1ccccc1Nc1c(-c2c[nH]c3ccccc23)nc2cccc(C)n12, the Potency was inconclusive: 20.6 µM [inhibitor, partial curve].
In the case of COc1ccc(CN2C(=O)CSCC2(C)C(=O)Nc2ccc3c(c2)OCCO3)cc1 (centres undefined), the Potency is reported as inconclusive: 11.6 µM [inhibitor, partial curve].
With COc1ccccc1Nc1nc(N)nc(-c2cc3ccccc3o2)n1 the “activity change, negative = growth inhibition” value was inactive: -28.5%.
In the case of CC1(C(=O)NCc2ccccc2)CCC(=O)N1C1CC1 (centres undefined), the “activity change, negative = growth inhibition” value is reported as inactive: 5.36%.
With O=C(c1ccc(F)cc1)C1CCN(Cc2ccccc2)CC1 the “activity change, negative = growth inhibition” value was inactive: -24.7%.
With Cc1nc(NCCOc2ccccc2)sc1C(=O)Nc1ccccc1 the Potency was inconclusive: 29.1 µM [inhibitor, single point].
With Cc1ccc(S(=O)(=O)N2CCC(C(=O)N3CCCC(C(F)(F)F)C3)CC2)cc1C (centres undefined) the Potency was inconclusive: 29.1 µM [inhibitor, single point].
With O=C(NCCSCc1ccccc1)c1ccc(C2SCC(=O)N2Cc2ccccc2)cc1 (centres undefined) the Potency was inconclusive: 29.1 µM [inhibitor, single point].
In the case of O=C(COC(=O)c1cc(S(=O)(=O)N2CCc3ccccc3C2)ccc1Cl)NCc1ccco1, the Potency is reported as inconclusive: 29.1 µM [inhibitor, single point].
With COc1cc(NC(=S)N2CCC(C(O)(c3ccccc3)c3ccccc3)CC2)cc(OC)c1 the Potency was inconclusive: 18.4 µM [inhibitor, single point].
In the case of Cc1ccccc1Cn1c(C)c(CNCCCc2ccccc2)c(C(=O)O)c1C, the Potency is reported as inconclusive: 29.1 µM [inhibitor, single point].
With COc1ccc(-n2c(=S)[nH]c3cc(C(=O)NCc4ccc(F)cc4)ccc3c2=O)c(OC)c1 the Potency was inconclusive: 23.1 µM [inhibitor, single point].
With Cc1ccc(N(Cc2cccs2)C(=O)c2ccccc2[N+](=O)[O-])cc1 the Potency was active: 14.6 µM.
In the case of COc1cccc(-c2nnc(SCC(=O)Nc3ccc(S(N)(=O)=O)cc3)n2C)c1, the “activity change, negative = growth inhibition” value is reported as inactive: 0.997%.
In the case of COc1ccc(CCN(C)CCCC(C#N)(c2cc(OC)c(OC)c(OC)c2)C(C)C)cc1OC (centres undefined), the Potency is reported as inconclusive: 17 µM [inhibitor, single point] and inconclusive: 9.44 µM [inhibitor, single point] and inconclusive: 25.9 µM [inhibitor, single point].
For Clc1ccccc1-c1nc(-n2ccnc2)c2ccccc2n1, the Potency was inconclusive: 29.1 µM [inhibitor, single point].
In the case of Cc1cccc(NC(=O)Cn2cnc3sc(C)c(S(=O)(=O)N4CCC(C)CC4)c3c2=O)n1, the Potency is reported as inconclusive: 20.6 µM [inhibitor, partial curve, poor fit].
With COc1ccccc1CN1CC[C@@]2(CCCN(C(=O)c3ccco3)C2)C1 the Potency was inconclusive: 29.1 µM [inhibitor, single point].
With Cc1ccc(S(=O)(=O)Nc2cc3c(C(=O)Nc4ccccc4)c(C)oc3c3ccccc23)cc1 the Potency was inconclusive: 16.4 µM [inhibitor, single point].
For CCc1nc(Cl)c(C#N)c2c1CCCC2, the Potency was inconclusive: 9.2 µM [inhibitor, partial curve, poor fit].
For Cc1ccc(NC(=O)CCc2nc3cccnc3n2-c2ccccc2)cc1Cl, the Potency was active: 16.4 µM.
With O=c1c2sc3ccccc3c2n(Cc2ccc(Cl)cc2)c(=O)n1Cc1ccco1 the Potency was inconclusive: 18.4 µM [inhibitor, single point].
With COc1ccc(-c2csc3nc(-c4ccc(C)cc4)oc(=O)c23)cc1OC the Potency was active: 9.2 µM.
In the case of COc1cc(OC)cc(C(=O)N[C@H](C(=O)Nc2c(C)n(C)n(-c3ccccc3)c2=O)C(C)C)c1, the Potency is reported as inconclusive: 8.2 µM [inhibitor, partial curve].
In the case of O=C(Nc1ccc(F)cc1)c1ccc(S(=O)(=O)NCc2cccnc2)cc1, the Potency is reported as inconclusive: 16.4 µM [inhibitor, partial curve].
For COc1ccc(Cl)cc1S(=O)(=O)N1CCC(C(=O)NC2CCCC2)CC1, the “activity change, negative = growth inhibition” value was inactive: -11.2%.
In the case of CC(C)Nc1ccc(C(CC(N)=O)NC(=O)c2ccccc2)cc1[N+](=O)[O-] (centres undefined), the Potency is reported as inconclusive: 16.4 µM [inhibitor, partial curve].
In the case of CC(C)(C)OC(=O)N[C@H](C(=O)OC(C)(C)C)c1ccc(Br)cc1, the Potency is reported as inconclusive: 29.1 µM [inhibitor, single point].
With O=C(Nc1ccc(F)cc1Cl)c1cnc(N2CCOCC2)c2ccccc12 the Potency was inconclusive: 18.4 µM [inhibitor, single point].
With CC(Sc1nc2cc([N+](=O)[O-])ccc2n1-c1ccc(F)cc1)C(=O)NCc1ccc2c(c1)OCO2 (centres undefined) the Potency was active: 16.4 µM.
For Fc1ccc(-c2cc3nc(-c4ccccc4)cc(N4CCN(CCN5CCOCC5)CC4)n3n2)cc1, the Potency was active: 11.6 µM.
In the case of CC(C)Cn1c(=O)c2ccccc2n2c(CCC(=O)NC3CCN(Cc4ccccc4)CC3)nnc12, the “activity change, negative = growth inhibition” value is reported as inactive: 6.24%.
For COC(CNC(=O)c1cc(S(=O)(=O)N2CCc3ccccc32)ccc1F)OC, the Potency was inconclusive: 14.6 µM [inhibitor, single point].
For CC(=O)N1C(=O)C(=C2C=C(C)OC(C)=C2)c2ccccc21, the Potency was inconclusive: 16.4 µM [inhibitor, single point].
In the case of Cc1noc(C)c1COc1ccc(C(=O)OCC(=O)NCc2ccccc2Cl)cc1, the Potency is reported as inconclusive: 29.1 µM [inhibitor, single point].
In the case of Cc1ccc(CN2CCN(c3cccc4[nH]ccc34)CC2)cc1, the Potency is reported as active: 16.4 µM.
In the case of CCC(C)NC(=O)Cn1c(=O)c2cccn2c2ccc(F)cc21 (centres undefined), the “activity change, negative = growth inhibition” value is reported as inactive: -12.4%.
With CCOC(=O)N1CCN(C(=O)CN(C2CCCCC2)S(=O)(=O)c2c(C)cc(C)cc2C)CC1 the Potency was inconclusive: 29.1 µM [inhibitor, single point].
For COc1cccc(Cn2c(-c3cccs3)noc2=O)c1, the “activity change, negative = growth inhibition” value was inactive: -10.8%.
With CC(C)(C)C(=O)Nc1cc2c3c(c1)CCC(=O)N3CCC2 the “activity change, negative = growth inhibition” value was inactive: 7.64%.
With Cc1cc(C)nc(N2CCCC(C(=O)Nc3nc4ccc(S(C)(=O)=O)cc4s3)C2)n1 (centres undefined) the Potency was inconclusive: 16.4 µM [inhibitor, partial curve].
For CCCCCCc1nc(C(N)=O)c2[nH]c(=O)n(-c3ccc(OC)cc3OC)c2n1, the Potency was inconclusive: 14.6 µM [inhibitor, partial curve].
For Cc1ccccc1NC(=O)CCn1nc(-c2ccc(Cl)cc2)c2ccccc2c1=O, the Potency was inconclusive: 29.1 µM [inhibitor, single point].
For CCn1nc(C(=O)N2CCN(Cc3nc4ccccc4s3)CC2)c2ccccc2c1=O, the Potency was inconclusive: 18.4 µM [inhibitor, single point].
With S=C(NCCSCc1c(Cl)cccc1Cl)Nc1ccccc1 the Potency was inconclusive: 29.1 µM [inhibitor, single point].
With Cc1cc(C)nc(NC(=O)/C=C/c2ccc(Cl)cc2Cl)c1 the Potency was inconclusive: 20.6 µM [inhibitor, partial curve].
In the case of CCc1nc2ccc(C(=O)Nc3cccc(OC)c3)cn2c1N(CC)CCOC, the Potency is reported as active: 13 µM.
With CN(CC(=O)Nc1ccc(Cl)cc1)C(=O)CCC1CCCC1 the “activity change, negative = growth inhibition” value was inactive: -24.6%.
With CCOC(=O)c1ccc(NC(=S)N(CCCN2CCCC(C)C2)Cc2cccs2)cc1 (centres undefined) the Potency was inconclusive: 29.1 µM [inhibitor, single point].
For COC(=O)c1sccc1S(=O)(=O)NC(C)c1cnn(-c2ccc(OC)cc2)c1C (centres undefined), the “activity change, negative = growth inhibition” value was inactive: -29%.
In the case of CCOc1c(OC)cccc1C1CC(=O)Nc2cc(OC)c(OC)cc21 (centres undefined), the Potency is reported as inconclusive: 20.6 µM [inhibitor, single point].
For Cc1nc2cc(-c3cccc(F)c3)nn2c(N2CCN(C(=O)c3ccco3)CC2)c1C, the Potency was active: 14.6 µM.
In the case of CCN(C(=O)COc1cc(OC)ccc1C(C)=O)C1CCS(=O)(=O)C1 (centres undefined), the “activity change, negative = growth inhibition” value is reported as inactive: -4.38%.
With O=C1CC(SC(=S)C2CCCC2=O)C(=O)N1 (centres undefined) the Potency was inconclusive: 5.8 µM [inhibitor, partial curve, poor fit].
With Clc1ccc(CSc2nnc(-c3ccccn3)n2Cc2cccs2)cc1Cl the Potency was inconclusive: 18.4 µM [inhibitor, single point].
For O=c1ccnc(SCCc2ccc([N+](=O)[O-])cc2)[nH]1, the “activity change, negative = growth inhibition” value was inactive: -16.9%.
In the case of O=C(O)COc1ccccc1/C=N/NC(=O)Cc1ccccc1, the “activity change, negative = growth inhibition” value is reported as inactive: -18.3%.
For O=C(Nc1ccc(Cl)cc1)Nc1nnc(CSc2ccc(Cl)cc2)s1, the Potency was active: 4.61 µM.
In the case of Cc1ccc(S(=O)(=O)NC2CCCCCC2)cc1, the “activity change, negative = growth inhibition” value is reported as inactive: -0.605%.
With OCC1OC(n2cnc3c(N4CCCCC4)ncnc32)C(O)C1O (centres undefined) the “activity change, negative = growth inhibition” value was inactive: -16.8%.
In the case of CCCOc1ccccc1NC(=O)/C=C/c1ccc(OC)c(S(=O)(=O)N2CCOCC2)c1, the Potency is reported as inconclusive: 29.1 µM [inhibitor, single point].
For O=c1[nH]cnc2c1ncn2C1OCC(O)C(O)C1O (centres undefined), the “activity change, negative = growth inhibition” value was inactive: -9.38%.
In the case of Cc1cccc(Nc2nnc(SCC(=O)c3c(N)n(C4CC4)c(=O)[nH]c3=O)s2)c1C, the Potency is reported as inconclusive: 18.4 µM [inhibitor, partial curve].
